Each structure is given as a SMILES string. The whole screen tested about 2,000 compounds, of which about 45 (2%) were called active.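 How the source made its calls: active means inhibition above the mean of all tested compounds plus 3 SD (cut at about 49% in these data); inactive means the rest.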 The list shows a part of the results.

This assay deals with Perilipin-5 (Homo sapiens) + 1-acylglycerol-3-phosphate O-acyltransferase ABHD5 (Homo sapiens) (UniProt Q00G26+Q8WTS1). The experiment in a line: blockers of ABHD5 binding to perilipin-5 – cell lysate, split luciferase complementation, luminescence, NIH validation set, pilot screen (AID 493035).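 Further: 0% = DMSO only wells while the 100% control is not stated.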 As to conditions: split G. princeps luciferase complementation, lysates, 4 h; at 7.9 µM, stronger effect = higher value.
UniProt Q00G26, sequence (Q00G26 whole entry, looked up): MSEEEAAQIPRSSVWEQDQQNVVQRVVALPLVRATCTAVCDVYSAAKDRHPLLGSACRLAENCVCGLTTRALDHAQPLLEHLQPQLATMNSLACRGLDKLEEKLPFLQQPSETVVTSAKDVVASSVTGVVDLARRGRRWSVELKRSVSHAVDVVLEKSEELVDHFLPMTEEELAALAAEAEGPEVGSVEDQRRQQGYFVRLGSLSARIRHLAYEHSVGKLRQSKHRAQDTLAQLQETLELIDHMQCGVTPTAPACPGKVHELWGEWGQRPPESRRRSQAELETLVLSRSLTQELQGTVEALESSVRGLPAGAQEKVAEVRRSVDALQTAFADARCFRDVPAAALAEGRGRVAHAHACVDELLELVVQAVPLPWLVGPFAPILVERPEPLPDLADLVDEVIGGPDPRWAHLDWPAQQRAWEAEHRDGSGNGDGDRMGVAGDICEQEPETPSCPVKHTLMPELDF
UniProt Q00G26, sequence (Q8WTS1 whole entry, looked up): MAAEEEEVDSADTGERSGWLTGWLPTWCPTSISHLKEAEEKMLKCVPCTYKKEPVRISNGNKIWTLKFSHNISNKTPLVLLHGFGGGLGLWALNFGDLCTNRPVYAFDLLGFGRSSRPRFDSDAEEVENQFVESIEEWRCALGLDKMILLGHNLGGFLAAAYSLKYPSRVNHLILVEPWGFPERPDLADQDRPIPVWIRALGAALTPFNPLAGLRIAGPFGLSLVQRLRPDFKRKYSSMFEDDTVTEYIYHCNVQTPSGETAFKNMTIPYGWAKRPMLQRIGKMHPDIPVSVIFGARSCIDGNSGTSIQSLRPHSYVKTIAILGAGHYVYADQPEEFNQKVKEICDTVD
Turning to `COc1ccccc1C(CC(=O)Nc1ccccc1C)c1ccc(OC(C)C)cc1` (stereo not drawn), the inhibition (in general, the relative decrease from the control value, in per cent) is inactive: 1.65%.

In the case of `COc1ccc(CCNC(=S)NC(=O)/C=C/c2ccc(C)cc2)cc1OC`, the inhibition was inactive: 11.2%. In the case of `N/C(=N\OC(=O)/C=C/c1ccccc1)c1ccc(Br)cc1`, the inhibition was inactive: -11.8%. To `CN(C)CCC(c1ccccc1)c1ccccn1` (stereo not drawn) belongs inactive: -1.36%. On to `Nc1ccc2nc(Cc3ccccc3)[nH]c2c1`, for which the inhibition is inactive: 1.14%.

Take `CC1(C)C(=O)OC(C(=O)c2ccc(Cl)cc2)C(C)(C)C1=O` (stereo not drawn): the inhibition is inactive: -5.91%. For the molecule `O=C(O)CCCCCCNC(=O)c1cncc(O)c1`, the inhibition is inactive: -6.1%. With `CC1(C)Cc2ccccc2-c2nc(-c3ccccc3)oc(=O)c21` the figure was inactive: -6.63%; with `COc1c(C=O)c(CCN(C)C(=O)c2ccc(F)cc2)cc2c1OCO2`, inactive: 3.02%; with `CCOC(=O)c1cccc(P(C)(C)=O)c1`, inactive: -0.43%. For the molecule `CCOCCCNCc1cn(-c2ccc(F)cc2F)nc1-c1ccccc1C`, the inhibition is inactive: -0.78%. As for `C=CC1=C(C(=O)O)N2C(=O)C(NC(=O)Cc3ccccc3)C2SC1` (stereo not drawn), the inhibition was inactive: 25.2%. In the case of `C=CCc1ccccc1OCC(O)CNC(C)C` (stereo not drawn), the inhibition was inactive: 0.63%. To `O=C(Cc1ccccc1)NNC(=O)Cc1ccccc1` belongs inactive: -4.46%; to `CCCCOc1ccc(CC(=O)NO)cc1`, inactive: 35.2%. Regarding `CC(=O)OC(C)C[N+](C)(C)C` (stereo not drawn), the inhibition is inactive: -12.9%.

For the molecule `Cc1ccccc1OCC(O)CN1CCN(C)CC1` (stereo not drawn), the inhibition is inactive: -6.87%. For the molecule `CC(=O)Nc1ccccc1C(=O)C(=O)Nc1ccccc1`, the inhibition is inactive: 2.49%. Take `COc1ccc(C2NC(=O)c3ccccc3O2)c(OC)c1OC` (stereo not drawn): the inhibition was inactive: 5.63%. As to `O=C1CCCN1C(=O)CCC(=O)N1CCCC1=O`, the inhibition was inactive: 4.49%. With `Cc1cccc2c(C(=O)O)cc(-c3cccnc3)nc12`, the inhibition is inactive: 8.76%. With `O=C(CC(NC(=O)OCc1ccccc1)C(=O)O)OCc1ccccc1` (stereo not drawn) the figure was inactive: 6.45%; with `O=C(O)CCCCCNC(=O)Nc1ccc2c(c1)OCCO2`, inactive: 4.57%. With `CC(C)(C)C(=O)NC(=S)Nc1sc2c(c1C(N)=O)CCC2`, the inhibition is inactive: 5.52%. With `COC(=O)C1=C(C)N(Cc2ccco2)C(=O)/C1=C\c1ccc([N+](=O)[O-])cc1` the figure was active: 84.5%. For the molecule `Cc1ccc(S(=O)(=O)N[C@@H](C)C(=O)N2CCC(C(=O)N3CCC[C@H]3C(=O)O)CC2)cc1`, the inhibition is inactive: -6.48%.

For `CC[C@]1(O)C[C@@H]2CN(CCc3c([nH]c4ccccc34)[C@@](C(=O)OC)(c3cc4c(cc3OC)N(C)[C@H]3[C@@](O)(C(=O)OC)[C@H](OC(C)=O)[C@]5(CC)C=CCN6CC[C@]43[C@@H]65)C2)C1`, the inhibition is inactive: 0.15%. Regarding `CN(C)CCOC(c1ccccc1)c1ccccc1` (tested in a mixture with another compound), the inhibition is inactive: 1.43%. Take `CCN(CCCc1ccccc1)CCCc1ccccc1`: the inhibition is inactive: 8.07%. Turning to `COc1ccc(C2c3c(n[nH]c3C)CC(C)(O)C2C(C)=O)cc1OC` (stereo not drawn), the inhibition was inactive: 0.45%. Regarding `CC12CCC(C(=O)N(CCC#N)CCC#N)(CC1=O)C2(C)C` (stereo not drawn), the inhibition is inactive: -4.7%. On to `CC(C)COc1ccc(Cc2cnc(N)nc2N)cc1`, for which the inhibition is inactive: 0%.

In the case of `CCN(CC)C(=O)N1CCN(C)CC1`, the inhibition was inactive: 15.6%.

In the case of `Nc1ccc(N=Nc2ccccc2)c(N)n1`, the inhibition is inactive: 5.84%. With `OCC(O)CN1CCN(c2ccccc2)CC1` (stereo not drawn) the figure was inactive: 3.21%; with `CC(C)C[C@H](NC(=O)NC(C)C)C(=O)O`, inactive: -0.17%. Consider `CN(C)CCC(c1ccc(Cl)cc1)c1ccccn1` (stereo not drawn), for which the inhibition was inactive: 0.44%. With `COc1ccc(C(=O)c2oc3ccc(Br)cc3c2NC(C)=O)cc1` the figure was inactive: 13.6%; with `O=C(CC1(O)C(=O)Nc2ccccc21)c1ccccc1O` (stereo not drawn), inactive: 1.58%.

Take `COc1ccc(-c2coc3cc(O)cc(O)c3c2=O)cc1`: the inhibition was inactive: 2%. For `COc1ccccc1C1C(C#N)=C(N)Oc2c1oc(CO)cc2=O` (stereo not drawn), the inhibition is inactive: -4.43%. For the molecule `CC1(C)CC(=O)C(C(=O)CCCCC(=O)C2C(=O)CC(C)(C)CC2=O)C(=O)C1`, the inhibition is inactive: -7.3%. As for `CCOC(=O)C1C(=O)OC(C)(C)C1C(C)C(=O)c1ccc(C)cc1` (stereo not drawn), the inhibition was inactive: 3.7%.

Turning to `O=C(Cc1cccc2ccccc12)N1CC[C@@]2(O)CCCC[C@H]2C1`, the inhibition is inactive: -4.58%. As for `CCOC(=O)c1ccccc1NC(=O)c1ccc(F)cc1`, the inhibition was inactive: -5.05%. Take `Cc1nc(N)nc2c1CCCC2`: the inhibition was inactive: -5.32%. With `CC[n+]1c(C)sc2cc(C)ccc21` the figure was inactive: 34.1%.

For the molecule `CCc1cc(=O)oc2cc3occ(-c4ccc(OC)c(F)c4)c3cc12`, the inhibition was inactive: 14.2%.

As for `Cc1ccc(SCC(=O)Nc2nccs2)cc1`, the inhibition is inactive: 10.4%. Regarding `COc1ccc(CCN(C)Cc2nc(Cc3ccc(OC)c(OC)c3)no2)cc1OC`, the inhibition was inactive: -3.3%. Regarding `Nc1nc2c(nc(SCc3ccccc3Br)n2C2OC(CO)C(O)C2O)c(=O)[nH]1` (stereo not drawn), the inhibition was inactive: 3.58%. For the molecule `Cc1ccc(NC(=O)CSc2nc(O)c(Cc3ccccc3)c(=O)n2-c2ccccc2)cc1`, the inhibition was inactive: 7.2%. On to `COCCCN1C(=O)C(=O)/C(=C(/O)c2ccc3c(c2)CC(C)O3)C1c1cccnc1` (stereo not drawn), for which the inhibition is inactive: -13.3%.

With `COc1ccc2cc(C(=O)Nc3ccc(S(N)(=O)=O)cc3)sc(=O)c2c1OC`, the inhibition is inactive: -10.1%. For the molecule `CSc1ccc(CN2CCN(CCC(C)C)C(CCO)C2)cc1` (stereo not drawn), the inhibition was inactive: 1.38%.

As to `Cc1ccc2c(c1)C1CN(C)CCC1N2S(=O)(=O)c1ccc(Oc2ccc([N+](=O)[O-])cc2)cc1` (stereo not drawn), the inhibition is inactive: -13.9%. With `COc1cccc(N2C(=O)[C@H]3C(C(=O)c4cnccn4)=NN[C@H]3C2=O)c1` the figure was inactive: 13.8%. As for `COc1ccc(CNC(=O)N[C@H](C(=O)O)C(C)C)cc1OC`, the inhibition was inactive: -6.93%. In the case of `CC1(C)CC(CC(=O)Nc2nccs2)(c2ccccc2)CCO1` (stereo not drawn), the inhibition is inactive: 2.38%. As for `CC(=O)c1c[nH]c2ccc(C)cc2c1=O`, the inhibition was inactive: 0.04%.

For `O=C(NCC1CCCCN1)c1cc(OCC(F)(F)F)ccc1OCC(F)(F)F` (stereo not drawn), the inhibition is inactive: 1.12%. `CC1CCc2cc(F)cc3c(=O)c(C(=O)O)cn1c23` (stereo not drawn): the inhibition was inactive: 8.1%. As to `CCCCOc1ccc(OCCCN2CCOCC2)cc1`, the inhibition was inactive: -4.9%.

The values are drawn from PubChem BioAssay AID493035 (The Scripps Research Institute Molecular Screening Center, 2011).
